We go through 14 molecules from paper PMC12136788.

Some of the results follow.

T1: UNK ZnF1-3 (human, UniProt Q9C0B0 31-174)
T1 sequence: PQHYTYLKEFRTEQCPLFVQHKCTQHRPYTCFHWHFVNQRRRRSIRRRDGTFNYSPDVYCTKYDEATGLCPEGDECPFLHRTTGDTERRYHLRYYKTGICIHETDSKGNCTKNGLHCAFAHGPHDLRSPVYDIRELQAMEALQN

B1: chr19:8913615:8913616:-_ENSMUSG00000071658_ENSMUST00000096259|mus_hu|mus_mus_mus_hu_False|28_38 (ssRNA)
RNA: GGGAGUUCUACAGUCCGACGAUCAGGGUACCAAAACCUUCUGCCUGAAAUGGGUGCCCCACCCAGUAGGGAGUUGCAGCUGAAAGUAUCUGAUGCACUGACAGUUAAUGCAGAGAAGGAGGCCCCUGGGGAGGGCCAGGCCAGCAACAGAGGAUUGAGCAUCA
B2: 83021423_83021639_1028_CDS_ENSMUSG00000034560_ENSMUST00000038388|mouse|control|control (ssRNA)
RNA: GGGAGUUCUACAGUCCGACGAUCAAAAAUCUGAAAGUGCAGUACAAAGAGCCCACAAAUUCCAACAUACUUGUCUCUCUGGUCAAUUUCAGAAGGCUCACCAAGCUUGGCUUCCACAUUUGCAAAAAUUGAGCGAAUGCUAUGCAACAGAGGAUUGAGCAUCA
B3: chr6:114281168:114281169:-_ENSG00000196591_ENST00000368632|hu_hu|hu_hu_hu_mus_True|78_108 (ssRNA)
RNA: GGGAGUUCUACAGUCCGACGAUCUUCCAUUUUUCUGUAUAAACCAUAAUUUAGCAGCAAGUUAUGGGUCAUCCGGAUUCUAUGAGGCUUCAUGGGAUGACCCUGGCCAUAAUAAUAAUUGCCAAUAUCACCAUCAUAGUAGUACAACAGAGGAUUGAGCAUCA
B4: chr18:24770415:24770416:+_ENSMUSG00000024271_ENSMUST00000025120|mus_hu|FALSE|FALSE (ssRNA)
RNA: GGGAGUUCUACAGUCCGACGAUCAUAAACAGGUCCUUCAUGGCCUUGAAGAUGCACUGCUUUUAAAAGCUGAUUAUCCUCUAUUUCCCAGUGAAUCACUUGAUUAUCAGAUCCUCCAGAAACUAAUUCAGUAGAAGGGGAGCCCAACAGAGGAUUGAGCAUCA
B5: chrX:98862621:98862622:+_ENSMUSG00000034160_ENSMUST00000044475|mus_hu|mus_mus_mus_hu_False|8_78 (ssRNA)
RNA: GGGAGUUCUACAGUCCGACGAUCCUGCAUCUCCUUUAGAGUGUUUCCCAUAUUAGAAUAAGCAUCAGCAAAGGUAGGACUGAUUCGAAUAGCCUCCUUAUAAUGCAUCAGAGCUUCCUGCAGUUUUCCCUGCUGUUGCAGUACCAACAGAGGAUUGAGCAUCA
B6: 4745457_4745577_5373_CDS_ENSMUSG00000067889_ENSMUST00000008991|mouse|control|control (ssRNA)
RNA: GGGAGUUCUACAGUCCGACGAUCUUCAUGGUCAAUCAUAUCUUGACUGCUGGCUGCUAGUUGUUUGAUGGUCUGGGCAUAGUCAGCAAGGGCUUGUUCCAAUACCUGAUGCUUCUUCACUUCUGCCUGGGCGCUCAGCUCAUCCAACAGAGGAUUGAGCAUCA
B7: chr5:128440902:128440903:+_ENSG00000066583_ENST00000173527|hu_mus|motif|central (ssRNA)
RNA: GGGAGUUCUACAGUCCGACGAUCUUGAACGGUGCUGCCAAGUCCUUUGGGGUAUUGUUCCGUUAUGAUAACUGGAAUCCCGGAGAUCCGAGCUCCUUGCAACAGUCUCUGUCCCACACUAAUGAUGUCCCCAAAGUAUUUGAUCAACAGAGGAUUGAGCAUCA
B8: chr12:58340223:58340224:+_ENSMUSG00000079104_ENSMUST00000139049|mus_mus|FALSE|FALSE (ssRNA)
RNA: GGGAGUUCUACAGUCCGACGAUCCUGUAUUUUGGAGCAGUGUUUCAUCUUGUCUUCCUGAGGUAUGGUAUUGGUAACUACUACUGCUUCAAAGCAUGCAUUGUUGAUGCGAGAAAUGGCAGGGCCAGAGAAGAUUCCAUGCGUCAACAGAGGAUUGAGCAUCA
B9: chr7:4964383:4964384:-_ENSMUSG00000061374_ENSMUST00000077385|mus_mus|FALSE|FALSE (ssRNA)
RNA: GGGAGUUCUACAGUCCGACGAUCGCAUCGGUAGGGUCGUUCACCAGUGUGUGAGCGCAGGUGGUUAGCCAAGUUGAAGCUAUGCUUGAAGCCCUUACCGCAUCGAGGACAUGCGUGGGGCUUGAGAGCCGUGUGUCGAGCAAACAACAGAGGAUUGAGCAUCA
B10: 11280689_11280809_2316_3pUTR_ENSG00000154319_ENST00000284486|human|control|control (ssRNA)
RNA: GGGAGUUCUACAGUCCGACGAUCUUCUACGGGUCUGGCCGAGGGACCCCUGCCAUGCCGUAUGACCCCAGACUGACCUCCCUAACCUGCUGGGGUCUUAACUUGCUGAUCCUCAAGCCUGUUGGGAGGGAGAAACUCUUAAAACAACAGAGGAUUGAGCAUCA
B11: chr18:90710673:90710674:+_ENSMUSG00000024614_ENSMUST00000025515|mus_mus|FALSE|FALSE (ssRNA)
RNA: GGGAGUUCUACAGUCCGACGAUCACCUAAUAAAAAUUCUGAAAUUAGCUAAAAUGAAGGCAUCAAAAUUAACAAAUGAUCUAUAGUAAACAUUAUCACAAAAUACCCACUCUUAGACACGACUGCAUUCUGAUGAAAGAUGCGCAACAGAGGAUUGAGCAUCA
B12: chr10:7844279:7844280:+_ENSG00000165629_ENST00000356708|hu_mus|FALSE|FALSE (ssRNA)
RNA: GGGAGUUCUACAGUCCGACGAUCAUCAGAAGCGUUCUUGCUGGCGUUGUCCAUGGCGGUCAUCCUGGCACUCUGCUCACUGGUGGUGGACUCCUUCAGGGAGUAGUAGAUGAGGUUGGCCAGAUUGUACUCCUGGUAAUUCUGCAACAGAGGAUUGAGCAUCA
B13: chr18:9954606:9954607:+_ENSG00000101558_ENST00000400000|hu_mus|motif|central (ssRNA)
RNA: GGGAGUUCUACAGUCCGACGAUCCCAUUUCCCCCACAGAAAACCUCUUGGCAUUUCCUGAAUGAGUGGGAUUAGCAAUCGGAAUAAAUCAUAUUUCAAGAGGUAACAGCAACAGAUAAAAUUUAAAGGAAUUAUUAAAAUAACCAACAGAGGAUUGAGCAUCA
B14: chr6:38652254:38652255:-_ENSG00000124767_ENST00000373365|hu_hu|hu_hu_hu_mus_False|1_88 (ssRNA)
RNA: GGGAGUUCUACAGUCCGACGAUCCGAGAACUUCAUAGCAGGGAAGUCACAUUUUUGCAGGAGGGUCAGUCCAAGAACCCUCGUAUAAAAAUCCAGGGACUUCUUAGGAUCCUUAAUUCUUAGCAUCGUUUGCUGCAAUAGAAACAACAGAGGAUUGAGCAUCA

For this test, the target named is T1, UNK ZnF1-3. The test is described as follows: nsRBNS (natural sequence RNA bind-n-seq); RBNS binding buffer (assumed for nsRBNS): 25 mM Tris pH 7.5, 150 mM KCl, 3 mM MgCl2, 0.01% Triton X-100, 500 ug/ml BSA, 20 U/ml SUPERase-In, 4 C; UNK is unkempt and MSI1 is Musashi-1; names of the RNAs are library labels; protein concentration not given here; high values mean tight binding.
B1: the binding signal is 1.7 enrichment R.
Molecule B2 showed a binding signal of 1.7 enrichment R.
Then B3, with 0.794 enrichment R.
For the molecule B4, the binding signal was 0.865 enrichment R.
The molecule B5 gave a binding signal of 1.15 enrichment R.
Then B6, with 0.599 enrichment R; and B7, with 0.788 enrichment R.
B8: the binding signal was determined as 0.892 enrichment R.
With B9 the figure was 1.27 enrichment R.
Then B10, with 0.89 enrichment R; and B11, with 1.94 enrichment R.
B12: the binding signal worked out at 0.618 enrichment R.
Then B13, with 2.28 enrichment R; and B14, with 0.9 enrichment R.
